Assay results published in paper PMC3867114, “Kinetic analysis of the interactions between plant thioredoxin and target proteins” (Frontiers in Plant Science, 2013).
Changes are numbered by the printed parent chain. These are yes or no findings as the source states them, for the method shown. Some binding calls cover weakened binding; strength is not graded here.

Assays:
[1] = biological target: T1, Trxh1SS after thiol alkylation with NEM (cysteine at position 11 alkylated) (Arabidopsis thaliana) (UniProt P29448); assay: SPR; Biacore X, 25°C; Trx variant immobilised as ligand on a CM5 chip by amine coupling (800–900 RU); target protein injected as analyte; H buffer (10 mM HEPES-NaOH, 150 mM NaCl, 50 μM EDTA, pH 7.4) with 0.005% Surfactant P20; 1:1 model for MDH, double exponential model for PrxQ; apparent (mixed disulfide formation with Trxh1CS); both purified
T1 sequence (chain, cysteine at position 11 alkylated with N-ethylmaleimide (NEM)): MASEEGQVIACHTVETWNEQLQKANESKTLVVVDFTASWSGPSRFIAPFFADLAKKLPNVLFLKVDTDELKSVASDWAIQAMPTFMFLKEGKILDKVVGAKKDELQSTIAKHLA

[2] = biological target: T2, Trxh1 mutant with a C40S/C43S substitution (Arabidopsis thaliana) (UniProt P29448); assay: as above
T2 sequence: T1 sequence (chain, cysteine at position 11 alkylated with N-ethylmaleimide (NEM))

[3] = biological target: T3, Trxh1 mutant with a C43S substitution (Arabidopsis thaliana) (UniProt P29448); assay: condition: only without prior treatment with 10 mM NEM; SEC; TSK-G2000SWXL in H buffer, 280 nm; as a2 but without NEM treatment before the chromatography (for MDH: second round of the fractionated complex); both purified
T3 sequence: T1 sequence (chain, cysteine at position 11 alkylated with N-ethylmaleimide (NEM)) with S40C

[4] = biological target: T3, Trxh1 mutant with a C43S substitution (Arabidopsis thaliana); assay: SEC; TSK-G2000SWXL in H buffer, 280 nm; Trxh1CS incubated with the oxidized target at 25°C, complexes treated with 10 mM NEM before the chromatography; both purified
[5] = biological target: T3, Trxh1 mutant with a C43S substitution (Arabidopsis thaliana); assay: mixed disulfide complex formation, non-reducing SDS-PAGE with N-terminal sequencing; 50 μM Trxh1CS and 50 μM PrxQ incubated for the periods indicated, quenched with 5% TCA, non-reducing SDS-PAGE; both purified
[6] = biological target: T3, Trxh1 mutant with a C43S substitution (Arabidopsis thaliana); assay: SPR; Biacore X, 25°C; Trx variant immobilised as ligand on a CM5 chip by amine coupling (800–900 RU); target protein injected as analyte; H buffer (10 mM HEPES-NaOH, 150 mM NaCl, 50 μM EDTA, pH 7.4) with 0.005% Surfactant P20; 1:1 model for MDH, double exponential model for PrxQ; apparent (mixed disulfide formation with Trxh1CS); both purified
[7] = biological target: T4, Arabidopsis thaliana cytosolic thioredoxin h1, wild type (Arabidopsis thaliana) (UniProt P29448); assay: as above
T4 sequence: T1 sequence (chain, cysteine at position 11 alkylated with N-ethylmaleimide (NEM)) with S40C, S43C

B1: Arabidopsis thaliana chloroplast peroxiredoxin Q, oxidized form (enzyme, UniProt Q9LU86 68-216)
chain: KVNKGQAAPDFTLKDQNGKPVSLKKYKGKPVVLYFYPADETPGCTKQACAFRDSYEKFKKAGAEVIGISGDDSASHKAFASKYKLPYTLLSDEGNKVRKDWGVPGDLFGALPGRQTYVLDKNGVVQLIYNNQFQPEKHIDETLKFLKAA
modifications: Cys45–Cys50 intramolecular disulfide bond (oxidized form)
In the case of B1, the binding [1] is reported as “binds”, the binding [2] is reported as “binds” and the binding [3] is reported as “no binding”. The binding [4] was “binds” and the binding [5] was “binds”.

B2: Arabidopsis thaliana chloroplast peroxiredoxin Q, reduced form (enzyme, UniProt Q9LU86 68-216)
chain: B1 chain
For B2, the binding [6] was “binds weakly”.

B3: Arabidopsis thaliana cytosolic malate dehydrogenase, oxidized form (enzyme, UniProt P93819 1-332, looked up)
chain: MAKEPVRVLVTGAAGQIGYALVPMIARGIMLGADQPVILHMLDIPPAAEALNGVKMELIDAAFPLLKGVVATTDAVEGCTGVNVAVMVGGFPRKEGMERKDVMSKNVSIYKSQAAALEKHAAPNCKVLVVANPANTNALILKEFAPSIPEKNISCLTRLDHNRALGQISERLSVPVSDVKNVIIWGNHSSSQYPDVNHAKVQTSSGEKPVRELVKDDAWLDGEFISTVQQRGAAIIKARKLSSALSAASSACDHIRDWVLGTPEGTFVSMGVYSDGSYSVPSGLIYSFPVTCRNGDWSIVQGLPIDEVSRKKMDLTAEELKEEKDLAYSCLS
modifications: Cys330–Cys330 intermolecular disulfide bond (oxidized form)
notes: cytosolic malate dehydrogenase (MDH), Arabidopsis thaliana, AT1G04410; also called MDH; oxidized MDH; source: cloned and purified as described in earlier work; oxidized by incubation with 50 μM CuCl2 for 1 h at 30°C
In the case of B3, the binding [7] is reported as “no binding”.
